Measurements: article PMC13083723 (Patterns, 2026)
About 190 (3.5%) of roughly 5,400 compounds showed an effect of 50% or more. The list shows a part of the results. Positions of bridges follow the written chain, without caps; N, C: chain ends. Non-standard residues stand in square brackets, D forms with d. Residues, ends and D or L forms follow the SMILES beside them. hArg = N=C(N)NCCCC[CH](N)C(=O)O; Mpa = O=C(O)CCS

These compounds were tested on Vero-E6 (assay: primary screen, phospholipidosis by LipidTOX staining; higher = more effect of the substance). Settings: 10 µM.
Procedure: To measure drug-induced PLD in Vero-E6 cells, we used the HCS LipidTOX Red Phospholipidosis Detection Reagent (Invitrogen, #H34351), which is non-toxic to cell growth and remains well retained after aldehyde fixation. In this setup, compounds (at 10 μM concentration) and controls (amiodarone: 10 μM concentration; DMSO: 0.1 v/v %) were added to clear-bottom, 384-well plates (PhenoPlate 384-well, black, optically clear flat bottom, tissue-culture treated, Revvity #6057302) using the Echo Liquid Handler (Labcyte).

| SMILES | result_ITMP [%] |
| --- | --- |
| CC(C)C[C@H](NC(=O)[C@H](Cc1ccccc1)NC(=O)CNC(=O)[C@H](C)NC(=O)[C@@H](N)Cc1ccc(O)cc1)C(=O)O | 0.21 |
| Clc1cccc(C(c2ccc3nc[nH]c3c2)n2ccnc2)c1 (stereo not drawn) | -2.01 |
| CC1=C[C@H](O)CC(C)(C)[C@H]1/C=C/C(C)=C/C=C/C(C)=C/C=C/C=C(C)/C=C/C=C(C)/C=C/C1=C(C)C[C@@H](O)CC1(C)C | 0.14 |
| CCc1nc2c(C)nc(C)cc2n1-c1ccc(CCNC(=O)NS(=O)(=O)c2ccc(C)cc2)cc1 | -1.88 |
| CCCc1c(OCC(O)COc2ccc3c(=O)cc(C(=O)O)oc3c2CCC)ccc(C(C)=O)c1O (stereo not drawn) | -5.36 |
| C[C@H]1CNCCCN1S(=O)(=O)c1cccc2cncc(F)c12 | 0.75 |
| N#Cc1c(N)nc(SCC(N)=O)c(C#N)c1-c1ccc(OCC2CC2)cc1 | -1.94 |
| C#Cc1cnc2[nH]c(=O)n(C(CC)CC)c2n1 | -1.48 |
| Cc1ccc(S(=O)(=O)N2CCC[C@H]2c2ccc(F)cc2)cc1 | 9.2 |
| N[C@H](C(=O)O)[C@H](O)c1ccc(O)c(O)c1 | 8.63 |
| CN(C)c1nc(N(C)C)nc(N(C)C)n1 | -11.5 |
| COc1cc2c(cc1-c1c(C)noc1C)ncc1[nH]c(=O)n([C@H](C)c3ccccn3)c12 | 27.7 |
| O=C(OC(C(F)(F)F)C(F)(F)F)N1CCN(Cc2cccc(Oc3ccccc3)c2)CC1 | -7.46 |
| N=C(N)NCCCC[C@@H]1NC(=O)CCSSC[C@@H](C(N)=O)NC(=O)[C@@H]2CCCN2C(=O)[C@H](Cc2c[nH]c3ccccc23)NC(=O)[C@H](CC(=O)O)NC(=O)CNC1=O ([Mpa][hArg]GDWPC-NH2; disulfide 1-7; configuration not given here) | -2.04 |
| COc1nccc(-c2c(-c3ccc(F)cc3)ncn2C2CCNCC2)n1 | -2.21 |
| CCn1c(=O)c(-c2cc[nH]n2)cc2c(C)nc(N)nc21 | -0.35 |
| CC(=O)OCC1=C(C(=O)O)N2C(=O)[C@@H](NC(=O)CS/C(=N/C(C)C)NC(C)C)[C@H]2SC1 | 0.2 |
| CCO[C@@H]1OC(=O)C[C@@H]1NC(=O)[C@@H]1CCCN1C(=O)[C@@H](NC(=O)c1ccc(N)c(Cl)c1)C(C)(C)C | 0.09 |
| O=C(NO)c1ccc2[nH]c(=O)c(CCCc3ccccc3)nc2c1 | -1.98 |
| CCN1C(=O)CN=C2NC=C(c3ccc(-c4nnc[nH]4)nc3C)N=C21 | -2.57 |
| CCN(CC)CCNC(=O)c1cc(S(C)(=O)=O)ccc1OC | -4.53 |
